Test results: the supplement of paper PMC12217912
This is one part of the list. Sequences were assembled here from the parent chain. Values near 0.05 are background.

B1: TEV protease; numbered along this chain (parent)
chain: MGESLFKGPRDYNPISSSICHLTNESDGHTTSLYGIGFGPFIITNKHLFRRNNGTLVVQSLHGVFKVKDTTTLQQHLVDGRDMIIIRMPKDFPPFPQKLKFREPQREERICLVTTNFQTKSMSSMVSDTSCTFPSGDGIFWKHWIQTKDGQCGSPLVSTRDGFIVGIHSASNFTNTNNYFTSVPKNFMELLTNQEAQQWVSGWRLNADSVLWGGHKVFMVKPEEPFQPVKEATQL

Variants of: B1
Assay: raw area under fraction-flipped curve 0-4 h after induction (AUC4h, not background-subtracted), DNA-recorder readout of cleavage of the substrate (dimensionless); higher = more cleavage of the substrate by the protease variant
Settings: temperature: 34 °C; time window: 0-4 h after rhamnose induction
Method: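 In vivo DNA recorder in E. coli TOP10(DE3) ΔrhaA at 34 °C. Each TEVp single-site mutant (parent TEVp 0) is paired with a single-site variant of the 7-mer TEVs (canonical ENLYFQ|S). The substrate sits between flexible linkers in a Bxb1-sfGFP-TEVs-SsrA fusion, so cleavage stabilises Bxb1 and speeds flipping of a recombination array, read by NGS. The value is the raw area under the fraction-flipped curve over 0-4 h after rhamnose induction (AUC4h), with ≥20 reads per time point. It is not background-subtracted; inactive controls average about 0.047.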
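Further: Bxb1 expression induced with 0.2% (w/v) L-rhamnose at OD600 near 0.5, cultures sampled hourly, flipped fraction per protease–substrate barcode pair counted by paired-end Illumina sequencing.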

Row | Variant | area with substrate ANLYFQS | area with substrate DNLYFQS | area with substrate FNLYFQS | area with substrate GNLYFQS | area with substrate HNLYFQS | area with substrate INLYFQS | area with substrate KNLYFQS | area with substrate LNLYFQS | area with substrate MNLYFQS | area with substrate NNLYFQS | area with substrate PNLYFQS | area with substrate RNLYFQS | area with substrate SNLYFQS | area with substrate TNLYFQS | area with substrate VNLYFQS | area with substrate WNLYFQS | area with substrate YNLYFQS | area with substrate QNLYFQS | area with substrate CNLYFQS
1 | K46H | 0.058 | 0.0524 | 0.0308 | 0.0447 | 0.0696 | 0.0477 | 0.0535 | 0.0569 | 0.0524 | 0.0809 | 0.0576 | 0.0552 | 0.0548 | 0.063 | 0.0544 | 0.0521 | 0.0539 |  | 
2 | K46L | 0.0565 | 0.0496 |  | 0.0675 | 0.0622 | 0.0656 | 0.0675 | 0.0642 | 0.0671 | 0.0611 | 0.0606 |  | 0.0573 | 0.0325 |  | 0.0677 | 0.0625 |  | 
3 | K46Q | 0.0717 | 0.063 | 0.0412 | 0.0712 | 0.0689 | 0.051 | 0.0482 |  | 0.052 |  | 0.068 | 0.0693 |  |  |  | 0.0558 | 0.0645 |  | 
4 | K46Y | 0.0882 | 0.0595 |  | 0.054 | 0.06 | 0.0364 | 0.0597 |  | 0.0447 | 0.0345 |  |  |  | 0.0594 |  | 0.0538 | 0.0438 | 0.0471 | 
5 | H47I | 0.0527 |  |  | 0.0702 | 0.0576 | 0.0553 | 0.0598 | 0.0617 | 0.0616 | 0.0546 | 0.0443 |  | 0.0516 | 0.053 |  | 0.0583 | 0.058 |  | 0.0662
6 | H47S | 0.0694 |  | 0.0561 | 0.0515 | 0.105 | 0.0641 | 0.0602 | 0.041 | 0.0466 | 0.0382 | 0.0481 |  | 0.0479 | 0.0538 | 0.0326 | 0.0543 | 0.0572 |  | 0.054
7 | H47V | 0.0852 |  | 0.0568 | 0.0533 | 0.064 | 0.0669 | 0.0543 | 0.0565 | 0.0606 | 0.0586 | 0.0609 |  |  | 0.0594 | 0.0484 | 0.0585 | 0.0623 |  | 0.0602
8 | F49C | 0.0359 |  |  | 0.0781 | 0.0482 | 0.0456 | 0.0493 | 0.066 | 0.0609 |  | 0.0745 |  | 0.0491 | 0.0581 |  | 0.0307 | 0.054 |  | 0.0559
9 | R51L | 0.0483 |  |  | 0.063 | 0.052 | 0.06 | 0.0637 | 0.0603 | 0.062 |  | 0.0702 | 0.0544 | 0.0808 | 0.0564 | 0.063 | 0.0579 | 0.0627 |  | 0.0823
10 | N52H | 0.0674 |  | 0.0615 |  | 0.0796 |  | 0.0529 |  | 0.0605 |  |  |  |  | 0.058 |  | 0.0554 | 0.0673 |  | 0.0654
11 | N52R | 0.0719 | 0.0284 | 0.0556 |  |  |  |  |  | 0.0752 |  |  |  | 0.0562 |  |  | 0.0667 | 0.0643 |  | 
12 | N53I | 0.0534 |  |  |  | 0.0578 |  |  | 0.054 | 0.0451 | 0.0407 | 0.054 | 0.0523 | 0.0419 | 0.0392 |  | 0.0535 |  |  | 0.0711
13 | N53R | 0.08 |  | 0.0544 | 0.0744 | 0.0522 | 0.0386 | 0.0539 | 0.07 |  | 0.0601 | 0.0722 |  | 0.0685 | 0.0702 | 0.0787 | 0.0528 |  |  | 0.0541
14 | N53T | 0.0815 |  | 0.0542 |  | 0.0626 | 0.0643 | 0.0694 |  | 0.075 | 0.0413 | 0.0688 |  | 0.0638 | 0.0539 | 0.0741 | 0.0576 |  |  | 0.0674
15 | G54N | 0.0364 | 0.0637 | 0.045 | 0.0537 | 0.0828 | 0.0613 |  | 0.0515 | 0.0443 |  | 0.0586 |  | 0.0335 | 0.0551 |  | 0.0536 | 0.0474 |  | 
16 | G54T | 0.0701 | 0.0626 | 0.018 | 0.0375 | 0.0581 | 0.0478 | 0.0565 | 0.0536 | 0.0595 | 0.043 |  |  | 0.0576 | 0.0643 |  | 0.071 | 0.0486 |  | 
17 | G54Y | 0.0774 |  | 0.0569 |  | 0.0538 | 0.048 |  | 0.0743 | 0.0766 | 0.0695 |  |  | 0.0487 | 0.0699 | 0.0511 | 0.0429 | 0.058 | 0.0716 | 0.0727
18 | T55Y | 0.0512 | 0.0651 |  | 0.0541 | 0.0599 |  | 0.0742 |  |  |  | 0.0719 |  | 0.0825 | 0.0606 | 0.0703 |  |  |  | 
19 | V58K | 0.0411 |  | 0.0336 |  |  | 0.0289 | 0.0505 | 0.0356 |  | 0.0439 | 0.0602 | 0.0642 | 0.0472 |  |  | 0.0788 | 0.0501 |  | 0.0543
20 | Q59Y | 0.0689 |  | 0.0558 |  | 0.047 |  |  | 0.0692 | 0.0593 |  |  |  | 0.088 |  |  | 0.0637 |  |  | 0.0608
21 | S60D | 0.0296 | 0.0703 |  | 0.0513 | 0.0527 |  |  | 0.0582 |  |  | 0.062 | 0.0559 | 0.0518 | 0.0605 |  | 0.0447 | 0.0696 |  | 0.0558
22 | S60E | 0.049 |  | 0.0578 | 0.0466 | 0.0518 | 0.0423 |  | 0.075 |  |  |  |  | 0.0584 | 0.0463 | 0.0601 | 0.0485 | 0.0408 |  | 0.0494
23 | S60Q | 0.0644 | 0.0616 |  |  |  | 0.0637 |  |  |  |  | 0.0739 |  |  | 0.0699 |  | 0.0525 | 0.0613 |  | 
24 | S60Y | 0.0709 |  |  | 0.0565 | 0.0601 | 0.11 | 0.0566 | 0.0663 |  | 0.0701 |  |  | 0.0384 | 0.0611 | 0.0663 | 0.0611 | 0.0463 |  | 0.0661
25 | L61D | 0.0662 | 0.0865 | 0.0608 |  | 0.0553 | 0.0417 |  | 0.0573 |  | 0.064 | 0.0688 | 0.0596 |  | 0.0645 | 0.0776 | 0.0646 | 0.0653 |  | 
26 | L61K | 0.0718 |  | 0.0403 | 0.067 |  | 0.0667 |  |  | 0.0729 |  | 0.0704 |  |  | 0.0582 |  | 0.0596 |  |  | 0.0659
27 | H62M | 0.053 |  | 0.0685 |  | 0.0665 |  |  |  | 0.0545 |  |  |  | 0.0794 |  |  |  | 0.0554 |  | 0.0706
28 | G63D | 0.03 |  |  |  | 0.0498 |  | 0.0521 | 0.0562 | 0.0592 |  | 0.0678 |  | 0.0622 | 0.0555 | 0.0593 | 0.0577 | 0.0613 |  | 0.0547
